# Measurements reported in PubChem BioAssay AID485344 (National Center for Advancing Translational Sciences (NCATS), 2010).
# The whole screen tested about 340,000 compounds, of which about 6,900 (2%) were called active. Cut-off read from the data, not from the text of the source: active = inhibition above about 30%; inactive = below that, where a call was filed. The list shows a part of the results, in another mix than the full data. Where no call is shown, the source filed none.
# Molecular target: D(2) dopamine receptor (Homo sapiens) (UniProt P14416)
# Experiment: HTS Assay for Allosteric Antagonists of the Human D2 Dopamine Receptor: Primary Screen for Antagonists; note: 0% is about no effect
# Details: HEK293 TREx D2 cells, calcium flux, dopamine EC80; at 10 µM; stronger effect = higher value
# In short: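 Cells plated overnight at 30 C with tetracycline; no-wash calcium dye, 30–90 min RT; 10 s baseline; compound pinned; 180 s read; EC80 dopamine added; another 180 s read.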
# Chain of UniProt P14416 (P14416 whole entry, looked up): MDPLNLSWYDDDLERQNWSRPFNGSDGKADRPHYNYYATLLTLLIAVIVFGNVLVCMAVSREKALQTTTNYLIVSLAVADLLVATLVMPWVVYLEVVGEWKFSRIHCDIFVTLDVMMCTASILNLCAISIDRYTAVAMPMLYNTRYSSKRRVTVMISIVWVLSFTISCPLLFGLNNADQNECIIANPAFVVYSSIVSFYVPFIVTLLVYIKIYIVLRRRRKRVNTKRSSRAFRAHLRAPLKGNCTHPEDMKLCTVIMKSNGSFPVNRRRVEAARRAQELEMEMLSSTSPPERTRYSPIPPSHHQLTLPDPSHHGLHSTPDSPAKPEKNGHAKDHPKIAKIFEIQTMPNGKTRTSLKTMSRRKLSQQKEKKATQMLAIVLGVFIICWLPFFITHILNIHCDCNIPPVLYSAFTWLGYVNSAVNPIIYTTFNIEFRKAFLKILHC
row,Structure (SMILES),inhibition
1,COc1cc(CN(C(=O)COc2ccc(Cl)c(C)c2)c2ccccn2)cc(OC)c1OC,-2.12%
2,Cc1csc2nc(COc3ccccc3NC(=O)c3ccccc3Cl)cc(=O)n12,15.9%
3,COc1ccc(CCNC(=O)CCCn2nc(C)c3sc4ccccc4c3c2=O)cc1OC,-6.2%
4,Cn1c(=O)cc(OCC(=O)NCc2ccc(F)cc2Cl)c2ccccc21,-4.75%
5,COc1ccc(C(CNC(=O)c2cc3ccccc3o2)N2CCCC2)cc1 (stereo not drawn),active: 79.4%
6,Cc1ccc(-c2nc(CS(=O)(=O)CC(=O)Nc3cc(C)ccc3C)c(C)o2)cc1,10.4%
7,COc1ccc(-c2nc3scc(CCNC(=O)Cc4ccc(F)cc4)n3n2)cc1,-6.53%
8,CC(=O)c1c(-c2ccc(Cl)cc2Cl)noc1C,active: 30.2%
9,CCC(C)NC(=O)c1ccc2nc(Cc3ccccc3)oc2c1 (stereo not drawn),22.1%
10,O=C(Nc1cc(Cl)cc(Cl)c1)c1ccc(F)c(S(=O)(=O)NCc2ccccc2Cl)c1,12.9%
11,CCOc1ccc(NS(=O)(=O)c2ccc3nc(-c4ccccc4)[nH]c3c2)cc1,4.8%
12,Cc1ccccc1-c1nnc(SCC(=O)N2CCCCC2)o1,-16.3%
13,CCN(c1ccccc1)S(=O)(=O)c1nnc(NC(=O)c2ccco2)s1,-20.1%
14,COc1cc(OC)c(Nc2c3c(nc4nc(-c5cccs5)nn24)CCCC3)cc1Cl,23.8%
15,Cc1cc(C)cc(NC(=O)C2CC3CCC2C3)c1 (stereo not drawn),active: 55.7%
16,COC(=O)C(CCSC)NC(=O)c1cc2c(n(-c3ccc(OC)cc3)c1=O)CC(C)(C)CC2=O (stereo not drawn),6.9%
17,COc1cccc(C(=O)Nc2ccc(NC(=O)c3ccc(C(C)(C)C)cc3)cc2)c1,12.3%
18,CC1(C(=O)Nc2ncc(Cc3ccc(Br)cc3)s2)Cc2ccccc2C(=O)O1 (stereo not drawn),1.58%
19,COc1cccc2c1Oc1ncccc1N(c1ccc(C(=O)NCc3cccc(C)c3)s1)C2,3.35%
20,Cc1ccc(N2CC(NC(=O)C3CCCCC3)CC2=O)cc1C (stereo not drawn),-7.18%
21,CCc1ccccc1Nc1nn2c(=O)c3ccc(C(=O)NC4CCCCC4)cc3nc2s1,15.4%

row,Structure (SMILES),inhibition
1,CCOC(=O)c1c(N)n(-c2cccc(C)c2C)c2nc3ccccc3nc12,4.32%
2,COc1cc(OC)c(NC(=O)c2c3c(nn2C)-c2ccccc2SC3)cc1Cl,-16.5%
3,CC(C)CCN1CCN(Cc2cccs2)CC1CCO (stereo not drawn),active: 30.8%
4,Cc1ccn2c(=O)c(C(=O)NCc3ccccc3Cl)c(O)nc2c1,17.1%
5,CCc1ccc(CNC(=O)C2CCN(C(=O)N3CC(CC)Oc4ccc(C)cc43)CC2)cc1 (stereo not drawn),-9.43%
6,O=C(NC1CCCC1)c1ccc2c(c1)N(Cc1ccccc1Cl)C(=O)c1ccccc1S2,-16.8%
7,Cc1cc(C)c(NC(=O)CSc2ncc(S(=O)(=O)c3ccc(C(C)(C)C)cc3)c(=O)[nH]2)c(C)c1,3.94%
8,COc1ccc(CCNC(=O)Cn2cc(S(=O)(=O)Cc3cccc(Cl)c3)c3ccccc32)cc1OC,0.593%
9,COc1ccc(-c2noc(CSc3nnc(-c4ccc(Cl)cc4)n3C)n2)cc1OC,-4.68%
10,Cc1ccc(Cl)cc1NC(=O)CSc1nc(C)c(C)c(C)c1C#N,7.11%
11,CCOc1ccccc1NC(=O)CSc1nc2c(oc3ccccc32)c(=O)n1Cc1ccco1,-12.8%
12,CCOC(=O)c1cnc2c(C(F)(F)F)cccc2c1Nc1cccc(C(=O)OC)c1,-12.3%
13,CCCCN(CCCC)CCNC(=O)c1cc(=O)[nH]c2ccc(S(=O)(=O)N3CCCCCC3)cc12,9.66%
14,Cc1ccc(CNC(=O)C2CCCN(S(=O)(=O)c3ccc4c(ccn4C)c3)C2)cc1 (stereo not drawn),6.99%
15,CN1CCN(C(=O)Nc2cccc(Cl)c2)c2cccnc21,12.4%
16,CC(C)c1ccc(NC(=O)CSc2nc(=O)n(Cc3cccnc3)c3c2CCC3)cc1,-16.5%
17,CC1CN(C(=O)N2CCC(C(=O)NCc3ccco3)CC2)c2cc(Cl)ccc2O1 (stereo not drawn),-0.456%
18,COc1ccc(NC(=O)c2cc(-c3ccccc3O)no2)cc1,-14.3%
19,O=C(CSc1nc(-c2cccs2)nc2cc(=O)[nH]n12)Nc1ccc(F)cc1,5.77%
20,CCOc1ccc(NC(=O)CNS(=O)(=O)c2ccc(Br)s2)cc1,9.28%
21,CCOC(=O)c1sc2ccccc2c1S(=O)(=O)N1CCN(c2ccccc2)CC1,-3.29%

row,Structure (SMILES),inhibition
1,Cc1ccc(OCc2nc(-c3ccc(C(=O)NCCc4ccc(S(N)(=O)=O)cc4)cc3)oc2C)cc1,0.307%
2,COC(=O)c1c(NC(=O)CCCOc2ccccc2C)sc2c1CCC(C)C2 (stereo not drawn),-6.6%
3,COc1ccccc1CNC(=O)CN1C(=O)CCc2cc(S(=O)(=O)N3CCOCC3)ccc21,-8.81%
4,O=C(Nc1ccc2nc(SCC(=O)N3CCCC3)sc2c1)c1ccccc1F,-3.26%
5,COc1ccc(CNC(=O)c2c(Nc3ccccc3C)sc(C(=O)c3ccccc3)c2N)cc1,13%
6,CCc1ccc(NC(=O)CCCc2nc(-c3ccco3)no2)cc1,5.37%
7,CCOC(=O)C1CCCN(C(=O)Cn2ncc3c([nH]c4ccc(C)cc43)c2=O)C1 (stereo not drawn),4.27%
8,O=C1Nc2ccccc2CCc2ccccc21,active: 35.8%
9,CCCC(CCC)C(=O)Nc1cccc(-c2cn3cccnc3n2)c1,0.45%
10,CC1CCCN(CCCNC(=O)c2ccc3c(c2)N(Cc2ccc(F)cc2)C(=O)c2ccccc2S3=O)C1 (stereo not drawn),active: 74.3%
11,Cc1ccc(C)c(N2CCN(C(=O)c3ccc4[nH]c(C)c(C)c4c3)CC2)c1,1.56%
12,CCn1c(SCc2ccccc2F)nc(=O)c2c(C(=O)OC)cc(C3CC3)nc21,-4.7%
13,CCOc1ccc(-c2cc(C(=O)NCc3ccc(C)cc3)c3ccccc3n2)cc1,-22.3%
14,Cc1cccc(N2CCN(C(=O)c3ccc(NC(=O)c4nsc5ccccc45)cc3)CC2C)c1 (stereo not drawn),6.71%
15,CCOc1ccc(Cl)cc1C1CC(=O)Nc2cc(OC)c(OC)c(OC)c21 (stereo not drawn),-0.322%
16,CCOC(=O)C1CCCN(c2oc(-c3ccc(F)cc3)nc2C#N)C1 (stereo not drawn),active: 35.1%
17,COc1ccccc1CNC(=O)c1sc2nc3n(c(=O)c2c1C)CCC3,14.7%
18,CCOc1ccc(CNS(=O)(=O)c2ccc(-c3cc(C(F)(F)F)on3)s2)cc1,-17.4%
19,CCOC(=O)c1ccc(NC(=O)C2CCN(S(=O)(=O)c3ccc(C)cc3)CC2)cc1,-16.5%
20,CC(=O)c1nn(-c2ccc(OC(F)(F)F)cc2)nc1Nc1ccc(C)cc1,-17.1%
21,CC(CCc1ccccc1)NCC(O)COc1ccccc1 (stereo not drawn),active: 55.4%
